# The other results are listed elsewhere or left out.
# B1: rAAL-2 (Agrocybe aegerita) (protein)
# chain: MTSNVITQDLPIPVASRGFADIVGFGLDGVVIGRNAVNLQPFLAVKNFAQNAGGWLTTKHVRLIADTTGTGKGDIVGFGNAGVYVSVNNGKNTFADPPKMVIANFGYDAGGWRVEKHLRYLADIRKIGRADIIGFGEKGVLVSRNNGGLNFGPATLVLKDFGYDAGGWRLDRHLRFLADVTGNGHLDIVGFGDKHVFISRNNGDGTFAPAKSVIDNFCIDAGGWKIGDHPRFVADLTGDGTADIIGCGKAGCWVALNNGGGVFGQVKLVINDFGTDKGWQAAKHPRFIADLTGNGRGDVVGFGNAGVYVALNNGDGTFQSAKLVLKDFGVQQGWTVSKHRRFVVDLTGDGCADIIGFGEKETLVSYNDGKGNFGPVKALTNDFSFSGGKWAPETTVCWMANLDSSRH
# Key:
# Assay in all cases: glycan array binding signal (z-score within array); higher = stronger binding
# Conditions in all cases: glycan notation: IUPAC condensed, linker removed
# [1] = target: Gal6S(b1-3)GlcNAc6S
# How it was run: (§1)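 Negative Z-scores can be read as non-binding. The Z-score is calculated within each array and then averaged across arrays of one protein sequence at different concentrations or buffers and across linkers. Arrays, 3228 in all, were curated from the Consortium for Functional Glycomics database and kept only where the protein sequence was available.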
# [2] = target: Gal6S(b1-4)Glc
# How it was run: as §1
# [3] = target: Gal6S(b1-4)Glc6S
# How it was run: as §1
# [4] = target: Gal6S(b1-4)GlcNAc
# How it was run: as §1
# [5] = target: Gal6S(b1-4)GlcNAc6S
# How it was run: as §1
# [6] = target: GalNAc(a1-3)Gal
# How it was run: as §1
# [7] = target: GalNAc(a1-3)GalNAc
# How it was run: as §1
# [8] = target: GalNAc(a1-3)GalNAc(b1-3)Gal(a1-4)Gal(b1-4)Glc
# How it was run: as §1
# [9] = target: GalNAc(a1-3)GalNAc(b1-3)Gal(a1-4)Gal(b1-4)GlcNAc
# How it was run: as §1
# [10] = target: GalNAc(b1-3)Gal
# How it was run: as §1
# [11] = target: GalNAc(b1-3)Gal(a1-4)Gal(b1-4)GlcNAc
# How it was run: as §1
# [12] = target: GalNAc(b1-3)Gal(a1-4)Gal(b1-4)GlcNAc(b1-3)Gal(b1-4)Glc
# How it was run: as §1
# [13] = target: GalNAc(b1-3)Gal(a1-6)Gal(b1-4)Glc
# How it was run: as §1
# [14] = target: GalNAc(b1-3)GalNAc
# How it was run: as §1
# [15] = target: GalNAc(b1-3)GlcNAc
# How it was run: as §1
# [16] = target: GalNAc(b1-4)Gal(b1-4)Glc
# How it was run: as §1
# [17] = target: GalNAc(b1-4)GlcNAc
# How it was run: as §1
# [18] = target: GalNAc(b1-4)GlcNAc(b1-2)Man
# How it was run: as §1
# [19] = target: GalNAc(b1-4)GlcNAc(b1-2)Man(a1-3)[GalNAc(b1-4)GlcNAc(b1-2)Man(a1-6)]Man(b1-4)GlcNAc(b1-4)GlcNAc
# How it was run: as §1
# [20] = target: GalNAc(b1-4)GlcNAc(b1-3)GalNAc(b1-4)GlcNAc
# How it was run: as §1
# [21] = target: GalNAc(b1-4)GlcNAc6S
# How it was run: as §1
# [22] = target: GalNAc(b1-6)GalNAc
# How it was run: as §1
# [23] = target: GalNAc3S(b1-4)GlcNAc
# How it was run: as §1
# [24] = target: GalNAc3S(b1-4)GlcNAc3S
# How it was run: as §1
# [25] = target: GalNAc3S(b1-4)[Fuc(a1-3)]GlcNAc
# How it was run: as §1
# [26] = target: GalNAc4S6S(b1-4)GlcNAc
# How it was run: as §1
# [27] = target: GalNAc6S(b1-4)GlcNAc
# How it was run: as §1
# [28] = target: Glc(a1-4)Glc
# How it was run: as §1
# [29] = target: Glc(a1-4)Glc(a1-4)Glc(a1-4)Glc
# How it was run: as §1
# [30] = target: Glc(a1-6)Glc(a1-6)Glc
# How it was run: as §1
# [31] = target: Glc(a1-6)Glc(a1-6)Glc(a1-6)Glc
# How it was run: as §1
# [32] = target: Glc(b1-4)Glc
# How it was run: as §1
# [33] = target: Glc(b1-6)Glc
# How it was run: as §1
# [34] = target: GlcA(b1-3)Gal
# How it was run: as §1
# [35] = target: GlcA(b1-3)GlcNAc
# How it was run: as §1
# [36] = target: GlcA(b1-6)Gal
# How it was run: as §1
# [37] = target: GlcA3S(b1-3)Gal(b1-4)GlcNAc(b1-2)Man
# How it was run: as §1
binder,measurement,setting,value
B1,glycan array binding signal (z-score),[1],-0.163
same,glycan array binding signal (z-score),[2],-0.307
same,glycan array binding signal (z-score),[3],-0.233
same,glycan array binding signal (z-score),[4],-0.28
same,glycan array binding signal (z-score),[5],-0.307
same,glycan array binding signal (z-score),[6],-0.294
same,glycan array binding signal (z-score),[7],-0.36
same,glycan array binding signal (z-score),[8],-0.017
same,glycan array binding signal (z-score),[9],0.074
same,glycan array binding signal (z-score),[10],-0.347
same,glycan array binding signal (z-score),[11],-0.161
same,glycan array binding signal (z-score),[12],-0.223
same,glycan array binding signal (z-score),[13],-0.194
same,glycan array binding signal (z-score),[14],1.36
same,glycan array binding signal (z-score),[15],-0.485
same,glycan array binding signal (z-score),[16],-0.208
same,glycan array binding signal (z-score),[17],-0.32
same,glycan array binding signal (z-score),[18],-0.333
same,glycan array binding signal (z-score),[19],0.093
same,glycan array binding signal (z-score),[20],-0.584
same,glycan array binding signal (z-score),[21],-0.107
same,glycan array binding signal (z-score),[22],-0.316
same,glycan array binding signal (z-score),[23],-0.228
same,glycan array binding signal (z-score),[24],-0.436
same,glycan array binding signal (z-score),[25],-0.279
same,glycan array binding signal (z-score),[26],0
same,glycan array binding signal (z-score),[27],-0.529
same,glycan array binding signal (z-score),[28],-0.269
same,glycan array binding signal (z-score),[29],-0.276
same,glycan array binding signal (z-score),[30],-0.139
same,glycan array binding signal (z-score),[31],-0.241
same,glycan array binding signal (z-score),[32],-0.305
same,glycan array binding signal (z-score),[33],-0.302
same,glycan array binding signal (z-score),[34],-0.159
same,glycan array binding signal (z-score),[35],-0.054
same,glycan array binding signal (z-score),[36],-0.188
same,glycan array binding signal (z-score),[37],-0.11
